Values joined by “and” are separate entries in the source; they are usually repeats but may differ in a detail not shown here. Identical values can stand only once.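 The compound was tested at five concentrations on cells cultured in 96-well plates, with a 48-hour exposure period. Abbreviation: GI50, concentration required for 50% inhibition of growth. TGI: total growth inhibition.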

This experiment deals with NCI-H322M lung. The experiment can be described thus: NCI tumour cell line growth inhibition, 48 h.
Turning to `CN(C)c1ccc(/C=c2/c3ccccc3n3c2cc(C24CC5CC(CC(C5)C2)C4)[n+]3C)cc1`, the TGI turned out to be 1.46 µM.

`Cc1ccc(S(=O)(=O)NC2C(=O)c3ccccc3C(=O)C2n2cnc3ccccc32)cc1` (centres undefined) registered a TGI greater than 100 µM.

`CNn1c(C)n[nH]c1=O` displayed a TGI greater than 100 µM.

Regarding `CC1=C2C[C@H]3[C@@H](CC=C4C[C@@H](O)CC[C@@]43C)[C@@H]2CC[C@]12O[C@@H]1C[C@H](C)CN[C@H]1[C@H]2C`, the GI50 is > 50 µM and 18.9 µM; the TGI was > 50 µM and 45.3 µM.

`N=C(N)c1csc([C@@H]2O[C@H](CO)[C@@H](O)[C@H]2O)n1` returned a TGI greater than 100 µM.

The compound `CC(=O)/C(=C\C1=CCCO1)C(=O)Nc1ccccc1C` returned a TGI greater than 100 µM.

For `Cc1cc(-c2nnc(N)nc2-c2ccc(F)cc2)cc(Cl)n1`, the GI50 was greater than 100 µM and the TGI is greater than 100 µM.

`COC1CC(OC2CCC3(C)C(CCC45CCC(C6=CC(=O)OC6)C(C)(CCC43)C5=O)C2)OC(C)C1O` (centres undefined) displayed a TGI greater than 100 µM.

With `COC(=O)C1[C@@H](C(=O)OC)C12C=Cc1ccccc1C=C2` (some centres undefined), the TGI was greater than 100 µM.

Consider `NC(=S)N/N=C(\C(=O)Nc1cccc([N+](=O)[O-])c1)c1nc2ccc([N+](=O)[O-])cc2[nH]c1=O`, for which the TGI was greater than 100 µM.

As for `CN(C(=O)Cc1ccc(Cl)c(Cl)c1)[C@@H]1CCCC[C@H]1[N+]1(C)CC=CC1`, the TGI is greater than 100 µM.

Turning to `CCOC(=O)C1=C(Nc2ccc(Cl)cc2Cl)OC/C1=N\NS(=O)(=O)c1ccc(C)cc1`, the TGI is greater than 100 µM.

`Nc1nc(=S)[nH]c(C(=O)Nc2ccc(Cl)c(Cl)c2)c1-c1ccc(Cl)cc1` showed a TGI greater than 100 µM.

Compound `COc1cc([C@@H]2c3cc4c(cc3C[C@@H]3COC(=O)C32)OCO4)cc(OC)c1O` (some centres undefined) registered a TGI greater than 100 µM.

In the case of `C=C[C@H]1CCC/C=C/[C@@H]2C[C@H](O)C[C@H]2[C@H](O)/C=C/C(=O)O1`, the GI50 is 0.0604 µM and the TGI was greater than 83 µM.

As for `COc1ccc2cc(/C=N\NC(=O)Nc3cccc4ccccc34)ccc2c1`, the TGI was greater than 100 µM.

As for `Cc1ccc(/C=C/C(=O)c2sc(-c3cccnc3)nc2C)cc1`, the TGI was greater than 100 µM.

The compound `CC(=O)Nc1c(C)ccc2c1C(=O)c1ccccc1C2=O` came in with a TGI greater than 100 µM.

For `O=C(CC12CC3CC(CC(C3)C1)C2)NCCOCCOCCOCCNC(=O)c1cc2c(o1)C(=O)c1ccccc1C2=O`, the GI50 was 1.25 µM and the TGI turned out to be 2.57 µM.

`CSc1nc(NC(=O)O)c(N(C(C)=O)C(=O)O)c(=O)n1C` registered a TGI greater than 100 µM.

The compound `COC(=O)C12C3C4C5C3(C#N)C1C5(C(=O)OC)C42C(=O)N(C(C)C)C(C)C` (centres undefined) showed a TGI greater than 100 µM.

As for `COC(=O)C(=O)C(C(=O)C(=O)Nc1ccccc1C(C)=O)c1nc2ccc(C(=O)c3ccccc3)cc2[nH]c1=O` (centres undefined), the TGI is greater than 100 µM.

`NC(=O)c1ccc2c(-c3ccnc(NCCCO)n3)c(-c3ccc(F)cc3)nn2c1`: the GI50 was greater than 25 µM and the TGI was greater than 25 µM.

Compound `CN(C)C(=O)Nc1cc2c3c(c1)CCCN3CCC2` showed a TGI greater than 10 µM.

`CN(C)C1CCN(C(=O)c2ccc(NC(=O)Nc3ccc(-c4nc(N5CCOCC5)nc(N5CCOCC5)n4)cc3)cc2)CC1`: the GI50 is 0.0134 µM and 0.0252 µM; the TGI is 0.27 µM and 0.186 µM and 0.679 µM.

Compound `Cc1ccc(NC(=O)CC(=O)n2nc(-c3ccccc3)c(N=Nc3ccccc3Cl)c2-c2ccccc2)cc1` came in with a TGI greater than 100 µM.

`Cc1ccc(Nc2nc(N)nc3c2ncn3C2OC(CO)C(O)C2O)cc1` (centres undefined) showed a TGI greater than 100 µM.

In the case of `COc1ccc(-c2ccc(-c3ccc(C(=N)N)s3)s2)cc1Cl`, the GI50 was 1.66 µM and the TGI worked out at 3.04 µM.

For the compound `Cc1nc2cc(N)c(F)cc2[nH]1`, the TGI is greater than 100 µM.

Turning to `COC(=O)C12CC(c3ccccc31)C1C(=O)OC(=O)C12` (centres undefined), the TGI was greater than 100 µM.

`Cc1cccc(C)c1NC(=O)CCc1nnc2s/c(=C\c3ccc(Cl)cc3)c(=O)n12` showed a TGI greater than 100 µM.

With `C=C1CC(C)(COc2ccc3ccc(=O)oc3c2)OC1=O` (centres undefined), the TGI came out at 26.4 µM.

Values taken from PubChem BioAssay (NCI).
